# From the supplement of paper PMC8728848
# This is one part of the list.
# What was measured:
# Assay in all cases: glycan array binding signal (z-score within array); higher = stronger binding
# Conditions in all cases: glycan notation: IUPAC condensed, linker removed
# [1] = molecular target: Neu5Ac(a2-3)Gal(b1-4)GlcNAc(b1-3)Gal(b1-3)GlcNAc
# In short: (§1)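 From the Consortium for Functional Glycomics database, 3228 arrays were curated, keeping only those whose protein sequence was available. Binding is given as a within-array Z-score averaged across arrays sharing a protein sequence and across linkers. Negative Z-scores can be read as non-binding.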
# [2] = molecular target: Neu5Ac(a2-3)Gal(b1-4)GlcNAc(b1-3)Gal(b1-4)GlcNAc
# In short: as §1
# [3] = molecular target: Neu5Ac(a2-3)Gal(b1-4)GlcNAc(b1-3)Gal(b1-4)GlcNAc(b1-2)Man(a1-3)[Neu5Ac(a2-3)Gal(b1-4)GlcNAc(b1-3)Gal(b1-4)GlcNAc(b1-2)Man(a1-6)]Man(b1-4)GlcNAc(b1-4)GlcNAc
# In short: as §1
# [4] = molecular target: Neu5Ac(a2-3)Gal(b1-4)GlcNAc(b1-3)Gal(b1-4)GlcNAc(b1-3)Gal(b1-4)GlcNAc
# In short: as §1
# [5] = molecular target: Neu5Ac(a2-3)Gal(b1-4)GlcNAc(b1-3)Gal(b1-4)GlcNAc(b1-3)Gal(b1-4)GlcNAc(b1-2)Man(a1-3)[Neu5Ac(a2-3)Gal(b1-4)GlcNAc(b1-3)Gal(b1-4)GlcNAc(b1-3)Gal(b1-4)GlcNAc(b1-2)Man(a1-6)]GalNAc
# In short: as §1
# [6] = molecular target: Neu5Ac(a2-3)Gal(b1-4)GlcNAc(b1-3)Gal(b1-4)GlcNAc(b1-3)GalNAc
# In short: as §1
# [7] = molecular target: Neu5Ac(a2-3)Gal(b1-4)GlcNAc(b1-3)Gal(b1-4)GlcNAc(b1-3)[Neu5Ac(a2-3)Gal(b1-4)GlcNAc(b1-3)Gal(b1-4)GlcNAc(b1-6)]GalNAc
# In short: as §1
# [8] = molecular target: Neu5Ac(a2-3)Gal(b1-4)GlcNAc(b1-3)Gal(b1-4)GlcNAc(b1-6)[Gal(b1-3)]GalNAc
# In short: as §1
# [9] = molecular target: Neu5Ac(a2-3)Gal(b1-4)GlcNAc(b1-3)Gal(b1-4)[Fuc(a1-3)]GlcNAc
# In short: as §1
# [10] = molecular target: Neu5Ac(a2-3)Gal(b1-4)GlcNAc(b1-3)GalNAc
# In short: as §1
# [11] = molecular target: Neu5Ac(a2-3)Gal(b1-4)GlcNAc(b1-3)[Neu5Ac(a2-3)Gal(b1-4)GlcNAc(b1-6)]GalNAc
# In short: as §1
# [12] = molecular target: Neu5Ac(a2-3)Gal(b1-4)GlcNAc(b1-6)GalNAc
# In short: as §1
# [13] = molecular target: Neu5Ac(a2-3)Gal(b1-4)GlcNAc(b1-6)[Gal(b1-3)]GalNAc
# In short: as §1
# [14] = molecular target: Neu5Ac(a2-3)Gal(b1-4)GlcNAc(b1-6)[Neu5Ac(a2-3)Gal(b1-3)]GalNAc
# In short: as §1
# [15] = molecular target: Neu5Ac(a2-3)Gal(b1-4)GlcNAc6S
# In short: as §1
# [16] = molecular target: Neu5Ac(a2-3)Gal(b1-4)[Fuc(a1-3)]GlcNAc
# In short: as §1
# [17] = molecular target: Neu5Ac(a2-3)Gal(b1-4)[Fuc(a1-3)]GlcNAc(b1-2)Man
# In short: as §1
# [18] = molecular target: Neu5Ac(a2-3)Gal(b1-4)[Fuc(a1-3)]GlcNAc(b1-3)Gal
# In short: as §1
# [19] = molecular target: Neu5Ac(a2-3)Gal(b1-4)[Fuc(a1-3)]GlcNAc(b1-3)Gal(b1-4)GlcNAc
# In short: as §1
# [20] = molecular target: Neu5Ac(a2-3)Gal(b1-4)[Fuc(a1-3)]GlcNAc(b1-3)Gal(b1-4)[Fuc(a1-3)]GlcNAc(b1-3)Gal(b1-4)[Fuc(a1-3)]GlcNAc
# In short: as §1
# [21] = molecular target: Neu5Ac(a2-3)Gal(b1-4)[Fuc(a1-3)]GlcNAc(b1-3)GalNAc
# In short: as §1
# [22] = molecular target: Neu5Ac(a2-3)Gal(b1-4)[Fuc(a1-3)]GlcNAc(b1-6)[Gal(b1-3)]GalNAc
# In short: as §1
# [23] = molecular target: Neu5Ac(a2-3)Gal(b1-4)[Fuc(a1-3)]GlcNAc(b1-6)[Neu5Ac(a2-3)Gal(b1-3)]GalNAc
# In short: as §1
# [24] = molecular target: Neu5Ac(a2-3)Gal(b1-4)[Fuc(a1-3)]GlcNAc6S
# In short: as §1
# [25] = molecular target: Neu5Ac(a2-3)Gal6S(b1-4)GlcNAc
# In short: as §1
# [26] = molecular target: Neu5Ac(a2-3)Gal6S(b1-4)[Fuc(a1-3)]GlcNAc
# In short: as §1
# Neu5Ac(a2-3)GalNAc = molecular target: Neu5Ac(a2-3)GalNAc
# In short: as §1
# [27] = molecular target: Neu5Ac(a2-3)GalNAc(b1-4)GlcNAc
# In short: as §1
# [28] = molecular target: Neu5Ac(a2-3)[GalNAc(b1-4)]Gal(b1-4)Glc
# In short: as §1
# [29] = molecular target: Neu5Ac(a2-3)[GalNAc(b1-4)]Gal(b1-4)GlcNAc
# In short: as §1
# [30] = molecular target: Neu5Ac(a2-3)[GalNAc(b1-4)]Gal(b1-4)GlcNAc(b1-3)GalNAc
# In short: as §1
# [31] = molecular target: Neu5Ac(a2-3)[Neu5Ac(a2-6)]GalNAc
# In short: as §1
# Neu5Ac(a2-6)Gal = molecular target: Neu5Ac(a2-6)Gal
# In short: as §1
# [32] = molecular target: Neu5Ac(a2-6)Gal(b1-3)GlcNAc(b1-3)[Gal(b1-4)GlcNAc(b1-6)]Gal(b1-4)Glc
# In short: as §1
# Neu5Ac(a2-6)Gal(b1-4)Glc = molecular target: Neu5Ac(a2-6)Gal(b1-4)Glc
# In short: as §1
# [33] = molecular target: Neu5Ac(a2-6)Gal(b1-4)GlcNAc
# In short: as §1
# [34] = molecular target: Neu5Ac(a2-6)Gal(b1-4)GlcNAc(b1-2)Man
# In short: as §1
# [35] = molecular target: Neu5Ac(a2-6)Gal(b1-4)GlcNAc(b1-2)Man(a1-3)Man(b1-4)GlcNAc(b1-4)GlcNAc
# In short: as §1
binder,measurement,setting,value
DrGal9 (Danio rerio) (protein) MAFYQQPPYYNPRIPFSGPIQGGLQDGKSIIISGRVLPGANRFHVNLQCGSHSEANVALHFNPRYEDTDYVVNNSYLNRTWGSEERKYESPFAQGQTFTLQILVAQDKYKISTNGRHFMDYKHRIPFTQVDTVAVEGMVEVNSVAFQNPAGFIPPQAGYAPQYAVPPGCGFPAFPSAPNYTIPHKTVMNGGLHPGKNIVINGVVNPNAKSIIFNLCYRSGIAFHYNPRFDENVVVRNTNQMEKWGAEERFGGLPFHKGQPFQVTISCNPQHYNVFVNGKQEHTYKHRYTKLNDIDILEICGDLQLTSVQA,glycan array binding signal (z-score),[1],-0.042
same,glycan array binding signal (z-score),[2],0.406
same,glycan array binding signal (z-score),[3],0.057
same,glycan array binding signal (z-score),[4],0.284
same,glycan array binding signal (z-score),[5],-0.067
same,glycan array binding signal (z-score),[6],-0.025
same,glycan array binding signal (z-score),[7],1.04
same,glycan array binding signal (z-score),[8],0.662
same,glycan array binding signal (z-score),[9],-0.371
same,glycan array binding signal (z-score),[10],-0.302
same,glycan array binding signal (z-score),[11],0.008
same,glycan array binding signal (z-score),[12],-0.352
same,glycan array binding signal (z-score),[13],-0.135
same,glycan array binding signal (z-score),[14],-0.386
same,glycan array binding signal (z-score),[15],0.142
same,glycan array binding signal (z-score),[16],-0.413
same,glycan array binding signal (z-score),[17],-0.414
same,glycan array binding signal (z-score),[18],-0.411
same,glycan array binding signal (z-score),[19],-0.356
same,glycan array binding signal (z-score),[20],-0.384
same,glycan array binding signal (z-score),[21],-0.288
same,glycan array binding signal (z-score),[22],-0.38
same,glycan array binding signal (z-score),[23],-0.39
same,glycan array binding signal (z-score),[24],-0.387
same,glycan array binding signal (z-score),[25],-0.389
same,glycan array binding signal (z-score),[26],-0.413
same,glycan array binding signal (z-score),Neu5Ac(a2-3)GalNAc,-0.376
same,glycan array binding signal (z-score),[27],-0.365
same,glycan array binding signal (z-score),[28],-0.402
same,glycan array binding signal (z-score),[29],-0.395
same,glycan array binding signal (z-score),[30],-0.374
same,glycan array binding signal (z-score),[31],-0.395
same,glycan array binding signal (z-score),Neu5Ac(a2-6)Gal,-0.381
same,glycan array binding signal (z-score),[32],-0.364
same,glycan array binding signal (z-score),Neu5Ac(a2-6)Gal(b1-4)Glc,-0.297
same,glycan array binding signal (z-score),[33],-0.374
same,glycan array binding signal (z-score),[34],-0.383
same,glycan array binding signal (z-score),[35],-0.395
